Assay results reported in publication PMC4336329 (PLoS ONE, 2015).
About 14,000 (4.5%) of roughly 310,000 compounds showed an effect of 50% or more. The effect is printed as a negative number. The list shows a part of the results.
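Also: peak tail current of the secondary pulse compared with the same well before compound.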

The molecules below were run against human ether-à-go-go-related gene (hERG) potassium channel (human, UniProt Q12809) (assay: primary screen, population patch clamp on CHO cells stably expressing hERG).
Sequence of human ether-à-go-go-related gene (hERG) potassium channel (Q12809 whole entry, looked up): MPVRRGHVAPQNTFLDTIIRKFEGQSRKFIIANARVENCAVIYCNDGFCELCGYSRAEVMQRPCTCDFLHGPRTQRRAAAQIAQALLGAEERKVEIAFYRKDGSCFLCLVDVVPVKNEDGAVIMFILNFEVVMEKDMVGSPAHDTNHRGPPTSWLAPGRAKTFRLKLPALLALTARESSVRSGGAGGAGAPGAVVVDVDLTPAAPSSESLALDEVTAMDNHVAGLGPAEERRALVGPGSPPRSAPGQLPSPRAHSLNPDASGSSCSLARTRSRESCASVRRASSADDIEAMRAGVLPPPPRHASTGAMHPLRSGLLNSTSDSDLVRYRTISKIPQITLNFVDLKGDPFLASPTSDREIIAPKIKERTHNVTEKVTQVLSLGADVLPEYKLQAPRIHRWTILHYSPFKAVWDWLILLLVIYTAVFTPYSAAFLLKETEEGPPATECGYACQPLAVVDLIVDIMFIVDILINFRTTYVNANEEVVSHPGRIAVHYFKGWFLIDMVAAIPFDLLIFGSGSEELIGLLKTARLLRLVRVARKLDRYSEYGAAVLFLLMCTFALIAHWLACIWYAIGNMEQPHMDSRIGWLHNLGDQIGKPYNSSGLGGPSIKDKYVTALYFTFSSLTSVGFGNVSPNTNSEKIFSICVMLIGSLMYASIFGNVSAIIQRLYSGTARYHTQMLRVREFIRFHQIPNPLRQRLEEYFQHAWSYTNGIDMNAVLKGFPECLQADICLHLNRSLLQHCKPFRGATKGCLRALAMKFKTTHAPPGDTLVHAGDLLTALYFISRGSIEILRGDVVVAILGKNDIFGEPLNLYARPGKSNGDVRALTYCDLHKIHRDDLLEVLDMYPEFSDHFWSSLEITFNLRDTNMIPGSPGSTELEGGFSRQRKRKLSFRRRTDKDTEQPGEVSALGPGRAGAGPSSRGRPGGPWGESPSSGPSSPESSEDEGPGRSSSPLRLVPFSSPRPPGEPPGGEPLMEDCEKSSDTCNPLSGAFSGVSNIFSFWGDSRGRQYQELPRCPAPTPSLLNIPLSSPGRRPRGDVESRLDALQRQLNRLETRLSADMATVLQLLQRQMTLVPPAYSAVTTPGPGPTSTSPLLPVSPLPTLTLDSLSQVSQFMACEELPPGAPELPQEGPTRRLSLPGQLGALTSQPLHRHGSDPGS
In the case of Cc1ccc(NCc2nnc(SCC(=O)NCc3ccco3)n2CC2CCCO2)cc1Cl (centres unmarked), the “hERG current change (%, negative = inhibition) at 10uM” value is reported as -7.7%.
With c1ccc(CN(Cc2ccccc2)c2ncnc3c2nnn3Cc2ccccc2)cc1 the “hERG current change (%, negative = inhibition) at 10uM” value was 7.63%.
For COc1cccc(CN=C2Nc3ccccc3CS2)c1, the “hERG current change (%, negative = inhibition) at 10uM” value was 4.23%.
For N#Cc1ccc(OC(=O)c2cnccn2)cc1, the “hERG current change (%, negative = inhibition) at 10uM” value was 8.78%.
CCN(C1CCS(=O)(=O)C1)S(=O)(=O)c1ccc2ccccc2c1 (centres unmarked) was tested, and the “hERG current change (%, negative = inhibition) at 10uM” value was -10.5%.
For CN1C(C(=O)NCc2ccco2)CC2Cn3c(nc4cc(Cl)c(Cl)cc43)C21 (centres unmarked), the “hERG current change (%, negative = inhibition) at 10uM” value was -43.2%.
In the case of CCN(CC)CCCCN1c2ccccc2Sc2ccccc21.Cl, the “hERG current change (%, negative = inhibition) at 10uM” value is reported as -61.7%.
In the case of O=C(NCCc1ccc(Cl)cc1)C1CCC(=O)N1Cc1ccccc1Cl (centres unmarked), the “hERG current change (%, negative = inhibition) at 10uM” value is reported as -9.45%.
In the case of O=C(O)c1ccc(-c2ccc(OS(=O)(=O)c3ccccc3F)cc2)cc1, the “hERG current change (%, negative = inhibition) at 10uM” value is reported as 9.84%.
In the case of CCN1C(=O)C(CC(=O)Nc2ccc(F)cc2)N(Cc2ccc3c(c2)OCO3)C1=S (centres unmarked), the “hERG current change (%, negative = inhibition) at 10uM” value is reported as 2.16%.
For CCc1ccccc1NC(=S)NCc1ccc2c(c1)OCO2, the “hERG current change (%, negative = inhibition) at 10uM” value was -19.9%.
O=C(CCc1ccccc1)N1CCCC1 was tested, and the “hERG current change (%, negative = inhibition) at 10uM” value was 8.96%.
With COc1ccccc1NC(=S)NC(=O)Cc1ccccc1 the “hERG current change (%, negative = inhibition) at 10uM” value was 19.3%.
For O=C(CCS(=O)(=O)c1cccs1)Nc1ccc(C(=O)NCc2cccs2)cc1, the “hERG current change (%, negative = inhibition) at 10uM” value was 3.97%.
With CC(=O)OCCN1C(=O)c2cccnc2C1=O the “hERG current change (%, negative = inhibition) at 10uM” value was -5.21%.
With Cc1ccccc1S(=O)(=O)Nc1nc2ccccc2nc1N1CCOCC1 the “hERG current change (%, negative = inhibition) at 10uM” value was 7.22%.
In the case of N#CC1=C(N)SC(N)=C(C#N)C1c1cccc(O)c1, the “hERG current change (%, negative = inhibition) at 10uM” value is reported as 13.6%.
With O=C(CN1CCOCC1)Nc1scc2c1c(=O)oc1ccccc12 the “hERG current change (%, negative = inhibition) at 10uM” value was 16.1%.
For C/C=C/C(=O)OCC(=O)Nc1ccc(SC(F)F)cc1, the “hERG current change (%, negative = inhibition) at 10uM” value was -22.2%.
With COc1ccc(Cl)cc1NC(=O)CN1CCC(n2nnc3cc(C)ccc32)CC1 the “hERG current change (%, negative = inhibition) at 10uM” value was -24.2%.
O=C(Nc1ccc(Oc2cccnc2)cc1)C1CCN(Cc2ccc(F)cc2)CC1 was tested, and the “hERG current change (%, negative = inhibition) at 10uM” value was -55.2%.
In the case of Cn1c(=O)c2c(nc(N3CCOCC3)n2CC(=O)C23CC4CC(CC(C4)C2)C3)n(C)c1=O, the “hERG current change (%, negative = inhibition) at 10uM” value is reported as -24.3%.
With CN(C)C(CNC(=O)C1CCCN(C(=O)c2ccc(Cl)cc2)C1)c1ccco1 (centres unmarked) the “hERG current change (%, negative = inhibition) at 10uM” value was 5.06%.
Cn1c(=O)c2ncn(CC(=O)Nc3cc(C(F)(F)F)ccc3N3CCOCC3)c2n(C)c1=O was tested, and the “hERG current change (%, negative = inhibition) at 10uM” value was -49.2%.
In the case of CCN(CC)c1ccc(C(=O)c2ccccc2C(=O)O)c(O)c1, the “hERG current change (%, negative = inhibition) at 10uM” value is reported as 3.8%.
O=C(O)[C@@H]1CCCN1C(=O)c1ccccc1N1C(=O)[C@@H]2Cc3c([nH]c4ccccc34)C(c3cccc(Cl)c3)N2C1=O (some centres unmarked) was tested, and the “hERG current change (%, negative = inhibition) at 10uM” value was 3.44%.
With COc1cc(NC(=O)c2cc(Br)cc(C)c2OC)ccc1NC(=O)C(C)C the “hERG current change (%, negative = inhibition) at 10uM” value was 6.34%.
For CCCC(C)C(=O)Nc1ccc(S(N)(=O)=O)cc1 (centres unmarked), the “hERG current change (%, negative = inhibition) at 10uM” value was 11%.
For CC(=O)c1ccc(NC(=O)C2C3C=CC(O3)C2C(=O)O)cc1 (centres unmarked), the “hERG current change (%, negative = inhibition) at 10uM” value was 10.9%.
For CC(=O)Nc1ccc(N=Nc2ccc(O)cc2)cc1, the “hERG current change (%, negative = inhibition) at 10uM” value was 29.2%.
O=c1cc(CO)occ1OCc1c(F)cccc1Cl was tested, and the “hERG current change (%, negative = inhibition) at 10uM” value was 9.21%.
In the case of COCc1ccc(CN2CCc3c([nH]c4ccccc34)C2CC(C)C)o1 (centres unmarked), the “hERG current change (%, negative = inhibition) at 10uM” value is reported as -58.7%.
With O=C(c1cccs1)N1CCN(c2ccccc2)CC1 the “hERG current change (%, negative = inhibition) at 10uM” value was -0.00412%.
O=C(O)c1cc(-c2ccc(O)cc2)nc2ccccc12 was tested, and the “hERG current change (%, negative = inhibition) at 10uM” value was 21.5%.
For COc1cc(C(=O)OCc2nc3ccsc3c(=O)[nH]2)c([N+](=O)[O-])cc1OC, the “hERG current change (%, negative = inhibition) at 10uM” value was -24.5%.
For Cc1ccccc1Nc1nn2c(=O)c3ccccc3nc2s1, the “hERG current change (%, negative = inhibition) at 10uM” value was -7.82%.
Cc1ccc(C(=O)Nc2ccccc2Cl)cc1 was tested, and the “hERG current change (%, negative = inhibition) at 10uM” value was 13%.
With O=C(CN1CCc2ccccc21)NC(=O)NCc1ccco1 the “hERG current change (%, negative = inhibition) at 10uM” value was -6.87%.
For CCCCN1CCCCC1C(=O)Nc1c(C)cc(C)cc1C.Cl (centres unmarked), the “hERG current change (%, negative = inhibition) at 10uM” value was -36.6%.
In the case of COc1ccccc1-c1nn(-c2ccccc2)cc1C(=O)NC1CC1, the “hERG current change (%, negative = inhibition) at 10uM” value is reported as -4.1%.
With CCCCN(C(=O)c1cccc(S(=O)(=O)N2CCN(C)CC2)c1)c1c(N)n(CCCC)c(=O)[nH]c1=O the “hERG current change (%, negative = inhibition) at 10uM” value was 9.04%.
For COc1ccc(CC(=O)N2C[C@H]3C[C@@H](C2)c2cccc(=O)n2C3)cc1, the “hERG current change (%, negative = inhibition) at 10uM” value was 0.502%.
For COc1ccc(NC(=O)Cn2nnc(C(=O)NCCc3ccccc3)c2N)cc1, the “hERG current change (%, negative = inhibition) at 10uM” value was 24.6%.
With Cc1cccc(NC(=S)N2CC3CC(C2)c2cccc(=O)n2C3)c1C (centres unmarked) the “hERG current change (%, negative = inhibition) at 10uM” value was 24%.
